In PubChem BioAssay AID463173 (ICCB-Longwood Screening Facility, Harvard Medical School, 2010) one finds survival data, which are given here for 57 molecules.

Out of some 52,000 compounds screened, about 1,700 (3.3%) were called active. No stated cut-off is given here; in the data, active means survival mostly below about 52% (no sharp cut-off); inactive means mostly above about 56%. Some of the results follow.

This experiment relates to Wild type. Put plainly: S. aureus survival, RN4220 and DeltatarO strains – OD600, teichoic acid synthesis inhibitors, primary screen (AID 463173). To be noted: S. aureus RN4220 wild type/DeltatarO growth, OD600, 18 h, active compounds read low, screened at 18.75 µg/mL (by protocol).
Regarding `C=CC(=O)NCC1OCCc2ccccc21` (configuration not stated), the survival was inactive: 110%. As to `CCOc1ccc(Sc2cc(C(=O)NCCCOC)c3ccccc3n2)cc1`, the survival is inactive: 92%. As for `C#CCOc1ccc(C2C(C(=O)OC)=C(C)NC3=C2C(=O)c2ccccc23)cc1OCC` (configuration not stated), the survival was inactive: 102%.

As to `CN1CCN(C(=O)c2cnn(-c3cccc(F)c3)c2C2CCN(C(=O)OC(C)(C)C)CC2)CC1`, the survival was inactive: 72%. For the molecule `CCc1cccc2c(=O)c(C(=O)N3CCCCC3)c[nH]c12`, the survival is inactive: 101%. On to `N#Cc1ccccc1NC(=O)CC1Nc2ccccc2NC1=O` (configuration not stated), for which the survival was inactive: 105%. Consider `Cc1ccc(C)c(CSc2c(C(C)C)cnc3c2c(=O)n(C)c(=O)n3C)c1`, for which the survival was inactive: 126%. For the molecule `CCOc1nc(NCCN2CCOCC2)nc(NC(C)C)n1`, the survival is inactive: 103%.

In the case of `COc1ccc(N2CCN(C(CNC(=O)c3ccc(C)cc3)c3ccc4c(c3)OCO4)CC2)cc1` (configuration not stated), the survival was inactive: 80%. With `Cc1ccc(NC(=O)Cn2cc(S(=O)(=O)N3CCN(c4ccccc4F)CC3)c3ccccc3c2=O)cc1F` the figure was inactive: 87%; with `Cc1csc2nc(COc3ccc(NC(=O)COc4ccc(F)cc4)cc3)cc(=O)n12`, inactive: 84%. As for `CCOc1ccc(/C=C/c2nc(C#N)c(N(C)C)o2)cc1`, the survival is inactive: 116%. Next, `CCOc1ccccc1CNC(=O)c1nn(C)c2c1CS(=O)(=O)c1ccccc1-2`: inactive: 103%; `CC(C)c1ccc(CNc2nc(-c3ccco3)nn2S(=O)(=O)c2ccccc2)cc1`: inactive: 88%. `Oc1ccc(-c2csc(-c3ccccc3)n2)cc1O`: the survival was inactive: 94%. `Cc1cc2c(cc1NC(=O)c1ccc(C(C)(C)C)cc1)n(C)c(=O)c(=O)n2C`: the survival was inactive: 56%. Next, `O=C1CC(c2ccccc2)NC(=S)N1` (configuration not stated): inactive: 110%; `COc1ccc(NC(=O)c2sc3nc[nH]c(=O)c3c2C)cc1`: inactive: 84%. Take `Cc1ccc(-c2cc(C(=O)Oc3ccccc3)c3cccc(C)c3n2)cc1`: the survival is active: 13%. `Cc1sc(-c2cc3ccccc3oc2=O)nc1-c1ccc(Cl)cc1`: the survival is inactive: 74%. Next, `COC(=O)c1cc(S(=O)(=O)N2CCN(c3ccc(C)cc3C)CC2)cn1C`: inactive: 65%. For `CC(C)Oc1ccc(CNC(=O)C2COc3ccccc3C2)cc1` (configuration not stated), the survival is inactive: 49%. With `CSc1ccc(NC(=O)C2CC(O)CN2C(=O)Nc2ccccc2)cc1` (configuration not stated) the figure was inactive: 113%; with `O=C(CN1C(=O)COc2ccc(S(=O)(=O)N3CCCC3)cc21)N1CCN(c2ccccc2F)CC1`, inactive: 77%. As for `Cc1ccccc1-c1nc(CS(=O)CC(=O)NCCc2ccc(Cl)cc2)c(C)o1` (configuration not stated), the survival is inactive: 128%.

With `O=C1CC(c2ccccc2)Cc2[nH]c(=O)c(-c3nc(-c4ccc(F)cc4)cs3)cc21` (configuration not stated), the survival is inactive: 135%. As to `CCCCCCOc1ccc(-c2nc3ccc(Br)cc3c(=O)o2)cc1`, the survival was inactive: 71%. As for `COC(=O)c1ccccc1NC(=O)Nc1cccc(OCc2cc(=O)n3cccc(C)c3n2)c1`, the survival was inactive: 159%. For the molecule `CS(=O)(=O)N1CCN(CC(=O)NC2CCCCC2)CC1`, the survival was inactive: 108%. With `CCOC(=O)c1cnc2ccc(OCC)cc2c1N1CCN(c2cccc(Cl)c2)CC1` the figure was active: -9%; with `O=C1CN(C(=O)C2CCCCC2)C(c2ccccc2)c2cc(F)ccc2N1` (configuration not stated), inactive: 73%; with `CCOc1ccc(C2c3c(oc4ccc(C)cc4c3=O)C(=O)N2c2nc(C)c(C)s2)cc1OC` (configuration not stated), inactive: 142%. Consider `COc1ccc(-c2noc(-c3ccc(N4CCCCC4)c([N+](=O)[O-])c3)n2)cc1`, for which the survival is inactive: 75%. In the case of `COc1cccc(C2=NS(=O)(=O)N(C)C(C(=O)Nc3cccc(O)c3)=C2)c1`, the survival is inactive: 85%. With `CCn1cc(C(=O)NCCCN(CC(C)C)CC(C)C)c(=O)c2cc(S(=O)(=O)N3CCc4ccccc4C3)ccc21`, the survival is inactive: 80%. With `Cc1ccc(-c2nnc(SCC(=O)NCCC(C)C)nc2-c2ccc(C)cc2)cc1` the figure was inactive: 126%; with `Cc1ccc(CCNC(=O)CN2C(=O)COc3ccc(S(=O)(=O)N4CCC(C)CC4)cc32)cc1`, inactive: 91%; with `CCN1CCN(C(c2cccc(Cl)c2)c2c(O)cc(C)n(CCOC)c2=O)CC1` (configuration not stated), inactive: 66%. `Cc1cc(OCC(=O)NCC2(N(C)C)CCCCC2)cc(C)c1Cl`: the survival was inactive: 88%. Regarding `COc1ccc(CC(=O)Nc2ccc(-c3nc4ccccc4s3)cc2Cl)cc1`, the survival is inactive: 88%. Take `Cc1cc(NC(=O)C2CCCN(S(=O)(=O)c3ccc(Br)s3)C2)ccc1Br` (configuration not stated): the survival is inactive: 54%.

In the case of `COc1ccc(N2CCN(C(CNC(=O)C(=O)NCc3ccc(F)cc3)c3cccnc3)CC2)cc1` (configuration not stated), the survival is inactive: 90%.

Take `CCc1ccc(NC(=O)N(Cc2c[nH]c3ccccc23)C2CCCCCC2)cc1`: the survival is inactive: 127%. Consider `O=C(NCc1ccccc1)C(=O)NCC(c1ccco1)S(=O)(=O)c1ccccc1` (configuration not stated), for which the survival was inactive: 67%.

Take `Cc1cc2nn(-c3ccc(F)cc3)nc2cc1NC(=O)c1cc(Cl)ccc1Cl`: the survival is inactive: 127%.

Regarding `CCCCN1C(=O)C(O)(c2c(C)[nH]c3ccccc23)c2cc(Br)ccc21` (configuration not stated), the survival was inactive: 36%. Turning to `CCCN(CCC)c1nn2c(=O)c(C(=O)NCc3cccc(OC)c3)cnc2s1`, the survival was inactive: 72%. As to `Cc1cc(NC(=O)C2C3C(=O)N(c4ccccc4Cl)C(C(=O)NC(C)(C)C)C34C=CC2(C)O4)no1` (configuration not stated), the survival was inactive: 115%. In the case of `CCN(CC)CCCN1C(=O)C2C3C=CC(C3)C2C1=O` (configuration not stated), the survival is inactive: 105%. `COc1ccc(Cl)cc1NC(=O)CSc1nnc(C)n2c1cc1occc12`: the survival was inactive: 65%.

As to `CCOc1ccc(CCNC(=O)CCc2c(C)nc3c4c(C)cc(C)nc4nn3c2C)cc1`, the survival is inactive: 87%. Take `COc1ccccc1C1C=C(c2ccc(F)cc2)Nc2nc(-c3ccc(Cl)cc3)nn21` (configuration not stated): the survival was inactive: 84%. As for `CCN(CC)S(=O)(=O)c1ccc2c(c1)N(CC(=O)NCCCN1CCN(c3ccccc3F)CC1)C(=O)CO2`, the survival is inactive: 77%.

Consider `Cc1ccc2[nH]c(=O)c3cc(C(=O)N4CCN(c5ccccc5)CC4)sc3c2c1`, for which the survival is inactive: 71%. As to `COc1cccc(NC(=O)NCc2ccc3c(c2)CCN3C(=O)c2ccccc2)c1`, the survival was inactive: 64%. With `Cc1cccc(C(=O)Nc2sc3c(c2C(=O)NCc2ccco2)CCCC3)c1`, the survival is inactive: 100%. With `O=C(/C=C/c1ccccc1)Nc1ccccc1N1CCN(c2ccccc2)CC1` the figure was inactive: 106%.
